# According to the supplement of paper PMC11417369:
# Some of the results follow.
# System: PfHDP1 homeodomain (GST-tagged)
# Experiment: gcPBM binding intensity (ln(normalized median fluorescence intensity)); higher = stronger DNA binding
# How it was run: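 Plasmodium falciparum DNA-binding domains carrying a GST tag were expressed in E. coli and applied for 1 h, at about 25 μg on average, to an Agilent 4 × 180k array. The array held primer-extended double-stranded 36-bp intergenic genomic probes together with negative controls, and binding took place in 1× PBS with 1% milk, 0.2 mg/ml BSA, 0.5% salmon testes DNA and 0.03% Triton X-100. An Alexa488 anti-GST antibody detected bound protein, and the array was scanned at 488 nm. Binding intensity is taken as the highest Masliner-normalised natural-log median intensity across replicate spots of either probe orientation.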
row,Sequence,gcPBM binding intensity (ln)
1,TGTTAACTTAAAAAAATACCTACGGAAAAATCACAA [TGCATGCA_negctrl_site433],6.28
2,TATGTGTATAATAAAAGTACATATATTATTATATAA [XGTACX_site8556],6.35
3,TATTTCGTAATTTAATAATATACAAGAAATATATAT [XGTACX_negctrl_site143],6.11
4,CATATAATAAAAAATGTACACACATAAGAAAATTTA [CACACA_site8943],6.51
5,ATTGACGTCATATAAACATGCACATTTTGGATGTTT [TGCATGCA_site985],7.27
6,TAAAATAATAAAACAACACACAAATAGTTAAAATAG [CACACA_site1680],6.68
7,TAAATCATTTATTAAGTGCAATATTCTTTTTGAGAT,8.51
8,TGTTTTCCCTTTAGTGTGCACGTATTTCTATTAACA [GTGCAC_site9847],9.8
9,TAAAAACATTTAAATTGTACGGAAATAAAAATTTTT [XGTACX_site8225],6.47
10,ATATAAATATTAAATACACACATTTTTGATTAGGTT [CACACA_site7461],6.38
11,AAAATGATAATACCAAGTACACATATGAAAAATACA [XGTACX_site6763],7.05
12,ATATAGAATATATTAACATGCAATAAGTAAAGGGGG [TGCATGCA_site1022],7.05
13,ACAATGAAATATTCATGTACATATAAATAATAGTGT [XGTACX_site3762],6.41
14,CACTTCATAAAAATTGCACACATATAATAATGTACA [CACACA_site8692],10.1
15,ATATAATTTGATGGTTAACACACATATATATTATAT [CACACA_site8775],6.39
16,TCATATAATCAAATATGTACATATTTTCAATTGAAT [XGTACX_site6831],6.7
17,ATATTTATTTAATGAACACACGATATATTATTTTAT [CACACA_site1602],6.41
18,TTATTTATTTTTTATACACACAATTATCTTTTTAAG [CACACA_site6162],6.86
19,AAAATAGAGTTGAATGCACACATACAAATTTTTAGG [CACACA_site9188],8.74

row,Sequence,gcPBM binding intensity (ln)
1,TTATTAAATTCTTTATTTAGCATATACAATAAAAGA [CACACA_negctrl_site1420],6.23
2,ATAAATAATTTATTCACACATACAAAAGTTTACAAA [CACACA_site5666],6.55
3,TCTTATATAACGAAAGTAAAATAATATGCTAAGCAT [CACACA_negctrl_site668],6.23
4,TTTTTTTTTTTTGAAGTGCATGTTACGATGAACAAA [GTGCAC_site9451],7.25
5,CTAAAAAGAGAAGTGTGTCCTCAAATTAATATAATT [XGTACX_site1057],6.58
6,GAAAAAAAAAAAAATACACACAAATTGGTATAGAAT [CACACA_site380],6.48
7,AATGAATATTAAAGGAGTACACATAATAAGTAAGAA [XGTACX_site7354],7.53
8,TATATAAAAATATACACACACAAATGTATTTATATA [CACACA_site4284],6.37
9,AATAGGATATGGTACATTTTTTGTATACTTTTTGTT [CACACA_negctrl_site1804],6.07
10,AAACAAGTAATTGTTATTATTATTATATTATTATTA [CACACA_negctrl_site402],6.12
11,ATAAATTCTATGTATACACACATATATAATATATAT [CACACA_site2689],7.14
12,AAATATTATGTACGCACACACATTTTTGATATATAA [CACACA_site7755],7.04
13,CGCAACGTGAAAATACGTACACATACATTTTTATAT [XGTACX_site330],6.25
14,GTTATTAAATAATTCACACACATATATATATATATA [CACACA_site2260],9.39
15,TATGGAACACACCTTAATATGTGATAAAATATGATA [GTGCAC_negctrl_site718],6.56
16,TATTCCTATATACAGCGTACAAAAAATAATATGTAT [XGTACX_site8112],6.62
17,GGGGGAAGGTTGAAGGTGCTTGATGGAGAAAAATAT,7.79
18,TTAATACATACATTCACACACACTAAATGTATATTT [CACACA_site4105],6.76
19,TAATCGTTTTATAAATGTACAAAATTGTTATGTTAT [XGTACX_site5147],6.37

row,Sequence,gcPBM binding intensity (ln)
1,AAAAAATAGAATATGGGTACTAAAAAGATACAAACA [XGTACX_site4464],6.84
2,AAATTCGTAATAATGTGTACATAACTATACATAATT [XGTACX_site1717],6.34
3,ATTTATATGAAAATATGTACTTATATAAATTTATTT [XGTACX_site53],6.23
4,GATTATTTCTAAAAAGTGCATATTTAAAAATCTCCT,7.74
5,TATTATATTATACATACACACCCATATAATATGTTT [CACACA_site8191],6.85
6,ATTGTTTTGTAATATGAAAAAATTGTGTAATGTGTC [CACACA_negctrl_site1510],6.96
7,AGAAGATTAAACATTGCACACAAAAACATATTTTCT [CACACA_site8072],9.54
8,CAAAGGAAACCTATCTGTACACATATTGGGGGAAAA [XGTACX_site3502],7.27
9,AATATATAAGCTGTTCTATTCAAGAATTATATCTTA [CACACA_negctrl_site270],5.98
10,AAGATTAAACATTGCACACAAAAACATATTTTCTAT [CACACA_site530],9.7
11,AATAAATATATTAAAAGTACACAAATATTATTTAAT [XGTACX_site2482],6.38
12,AAAAAAAATATATTACAAAACTTAGGATCCTAATAT [CACACA_negctrl_site470],6.33
13,CACATAAAATAAGGTGCATGCAAACGAGAAAATAAA [TGCATGCA_site75],8.67
14,ATATATATATAATAATGTACTTATAATAGATGTGTA [XGTACX_site4677],8.48
15,TGCCCTTTGGTTATAACACACATGCACCCGTAAATA [CACACA_site3842],7.63
16,ATTATAATATTTAATTGTACTTGTATTTATTCCAAA [XGTACX_site6417],6.31
17,ATATTTTATATAATAGTGCAAATAATATTAAATAAT,9.78
18,TAATAAAAAGTTGAGGTGCATATAGAGTTCTTCTTT [GTGCAC_site9508],9.32
19,GAACGATATATTATATGTACATATATATATATATAT [XGTACX_site394],9.34
